The campaign covered roughly 390,000 compounds. About 930 (0.24%) were called active. Inconclusive results, whose numbers are uncertain, are shown with a selection of clear calls. Calls follow the shape of the dose curve; as a rule, active = well fitted activation curve with a large enough effect; inconclusive = small, poorly fitted or top-dose-only effect; inactive = no such curve, though single readings can be large or run the other way. Where the call is inconclusive, the potency comes from a doubtful curve fit.
assay: qHTS for Suppressors of FUS Proteinopathy: Primary screen using FUS-linked yeast assay; also: nearly all actives have a fitted effect of over 55% in size;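 as to growth rescue (activation): plate controls were DMSO vehicle for no effect and reference control for full effect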; conditions: S. cerevisiae FUS-expressing, OD600, 24 h; Potency: growth rescue; growth rescue (activation): at 76.6 µM (top of the series)
Method in brief: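 Read-out: OD at 600 nm after 24hr at 30C, reporting rescue of FUS-induced yeast toxicity. Cells at OD 0.005 in galactose (2%) minimal medium; compounds tested in a dilution series; CP55940 titration from 92uM final as control.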
Potency is read from the fitted curve at half-maximal effect; tags tell the direction and shape of the fitted curve.

| Compound | Potency | growth rescue (activation) |
| --- | --- | --- |
| COCCN(C(=O)c1ccco1)c1nnc(-c2ccc(F)cc2)s1 | inconclusive: 2.51 µM [activator, partial curve, poor fit] |  |
| Cc1ccc(Oc2coc3cc(OC(=O)c4cccs4)ccc3c2=O)cc1 | inconclusive: 12.6 µM [activator, partial curve, poor fit] |  |
| CCC(C)NC(=O)c1ccc(NC(=O)C2CCCO2)cc1 (centres undefined) |  | inconclusive: 67.6% [activator] |
| CCOc1ccccc1NC(=O)CSc1nc2c(oc3ccccc32)c(=O)n1-c1ccc(F)cc1 |  | inactive: 29.3% |
| COc1ccccc1N1CCN(c2ccc(=O)n(CC(=O)NCc3ccc(F)cc3)n2)CC1 | inconclusive: 17.8 µM [activator, partial curve, poor fit] |  |
| COC(=O)[C@]12C[C@H](CC(=O)NCc3cccc4ccccc34)C(=O)N(CCc3ccc(OC)c(OC)c3)C1=C[C@H](C1CCCC1)O[C@@H]2C | active: 12.6 µM |  |
| Cc1cc2ncn(C(=O)N3CCC(C)CC3)c2cc1C |  | inactive: -6.96% |
| CCc1ccc(NC(=O)CSc2nc(C)c(C(=O)Nc3ccccc3)c(-c3ccc(OC)c(OC)c3)c2C#N)cc1 | inconclusive: 25.1 µM [activator, partial curve] |  |
| CCOc1ccc(CC(=NCCc2ccccc2)C2=C(O)CC(C)(C)CC2=O)cc1OCC | inconclusive: 15.8 µM [activator, partial curve, poor fit] |  |
| O=C(C1CCC(Cn2c(=S)[nH]c3ccccc3c2=O)CC1)N1CCN(c2ccccc2)CC1 (centres undefined) | inconclusive: 14.1 µM [activator, partial curve] |  |
| CC(=O)c1ccc(OC2(C)CCN(Cc3csc4ccccc34)C2)cc1 (centres undefined) |  | inactive: -16.6% |
| Cc1nc(N)sc1-c1csc(NCc2ccccc2)n1 | inconclusive: 11.2 µM [activator, partial curve, poor fit] |  |
| Cc1ccccc1C(=O)N1CCN(c2ccc(NC(=S)NC(=O)c3cccs3)cc2)CC1 | inconclusive: 31.6 µM [activator, single point] |  |
| O=C1NC(Cc2ccccc2)c2nc3ccc(F)cc3c(=O)n2-c2cc3ccccc3cc21 (centres undefined) | inconclusive: 10 µM [activator, full curve, poor fit] |  |
| CCCn1c(CC)nc([N+](=O)[O-])c1S(=O)(=O)c1ccccc1 |  | inactive: 7.33% |
| COc1ccc(NC(=O)CCCn2cnc3ccccc3c2=O)cc1 | inconclusive: 10 µM [activator, partial curve, poor fit] |  |
| Cc1ccc(Cn2c(C(CO)Nc3nc(-c4ccc(F)cc4)cs3)nc3ccccc32)cc1 (centres undefined) | inconclusive: 11.2 µM [activator, full curve, poor fit] |  |
| C[C@H](CO)N1C[C@H](C)[C@@H](CN(C)S(=O)(=O)c2ccccc2)Oc2ccc(NC(=O)Nc3ccccc3)cc2C1=O | inconclusive: 35.5 µM [activator, single point] |  |
| CCOc1ccc(-c2cc3nc(C4CCN(C(=O)OC(C)(C)C)CC4)c(C(=O)Nc4c(C)cccc4C)cn3n2)cc1 | inconclusive: 31.6 µM [activator, partial curve, poor fit] |  |
| COC(=O)[C@]12C[C@H](CC(=O)NCCc3ccccc3OC)C(=O)N(Cc3ccc(Cl)cc3Cl)C1=C[C@H](C(C)(C)C)O[C@@H]2C | inconclusive: 10 µM [activator, full curve, poor fit] |  |

| Compound | Potency | growth rescue (activation) |
| --- | --- | --- |
| COc1ccc(C(=O)/C=C/C(=O)N(Cc2ccccc2OC)C(C(=O)NC2CCCCC2)c2ccncc2)c(O)c1 (centres undefined) | inconclusive: 31.6 µM [activator, partial curve, poor fit] |  |
| CC(=O)Nc1ccc(NC(=O)CSc2ccc(-c3ccco3)nn2)cc1 | inconclusive: 11.2 µM [activator, partial curve, poor fit] |  |
| Oc1ccc(C[C@@H](CN2CCCC2CN2C(=S)NC[C@@H]2Cc2ccccc2)N2C[C@H](Cc3ccccc3)N(CC3CCCCCC3)C2=S)cc1 (some centres undefined) | inconclusive: 17.8 µM [activator, partial curve, poor fit] |  |
| CCC(=O)Nc1ccccc1-c1nc2ccccc2n(C(CC)C(=O)Nc2cccc(Cl)c2)c1=O (centres undefined) | inconclusive: 44.7 µM [activator, single point] |  |
| CCCOc1ccc(C2C(C(=O)c3ccc(C)o3)=C(O)C(=O)N2Cc2ccco2)cc1 (centres undefined) | inconclusive: 31.6 µM [activator, partial curve, poor fit] |  |
| Cc1nc(SCc2cccc(F)c2)c2oc3ccccc3c2n1 |  | inactive: 14.1% |
| CCc1ccccc1NC(=S)NCCSc1ccc(Cl)cc1 |  | inactive: 15.8% |
| CCOC(=O)N1CCN(C(=O)C[C@@H]2C[C@@]3(C(=O)OCC)CCCC=C3N(CCC3=CCCCC3)C2=O)CC1 | inconclusive: 4.47 µM [activator, full curve, poor fit] |  |
| CC1CCCN(C(=O)Nc2cccc(NC(=O)N3CCCC(C)C3C)c2)C1C (centres undefined) | inconclusive: 44.7 µM [activator, partial curve, poor fit] |  |
| CCn1cc2nc(SCc3ccc(F)cc3)n(CCc3ccccc3)c(=O)c2n1 | inconclusive: 17.8 µM [activator, single point] |  |
| CCN(CCCNC(=O)c1ccc(Sc2ccc(Cl)cc2)c(NC(C)=O)c1)c1ccccc1 | inconclusive: 39.8 µM [activator, partial curve, poor fit] |  |
| COc1ccc(Sc2nc(-c3ccccc3)ncc2C(=O)O)cc1 | inconclusive: 11.2 µM [activator, single point] |  |
| Cc1ccccc1-c1cc(C(=O)NCc2ccc(OC(F)(F)F)cc2)n(CC2CC(c3cccnc3)=NO2)n1 (centres undefined) | active: 22.4 µM |  |
| CCn1c(=O)c(C(=O)NCCc2ccc(OC)c(OC)c2)c(O)c2ccccc21 | inconclusive: 35.5 µM [activator, single point] |  |
| CCN(CC)S(=O)(=O)c1nnc(NC(=O)c2ccc(Br)cc2)s1 |  | inactive: -35.7% |
| Cc1ccc(-c2nnc(Nc3ccccc3)c3ccccc23)cc1S(=O)(=O)N1CCN(C)CC1 |  | inactive: 5.42% |
| CCOc1ccc(C2=NNC(c3cccs3)=Nc3ccc(OC)cc32)cc1OCC | inconclusive: 56.2 µM [activator, partial curve, poor fit] |  |
| CC(=O)c1c(C)[nH]c(C(=O)OCC(=O)NNC(=O)c2ccc([N+](=O)[O-])cc2)c1C | inconclusive: 25.1 µM [activator, partial curve, poor fit] |  |
| O=C(CSc1nnc(-c2cccc(F)c2)c(-c2cccc(F)c2)n1)NC1CCCCC1 | inconclusive: 35.5 µM [activator, single point] |  |
| Cn1c(=O)c2c(nc(N/N=C/c3cccs3)n2Cc2ccc(Br)cc2)n(C)c1=O |  | inconclusive: 45.2% [activator] |

| Compound | Potency | growth rescue (activation) |
| --- | --- | --- |
| COc1cccc2c(=O)c3c(cnn3C)n(C)c12 |  | inactive: 14.7% |
| CCn1c(-c2cc3ccccc3cc2O)n[nH]c1=S |  | inconclusive: 106% [activator] |
| CSc1nsc(/C=C/Nc2cccc(Cl)c2)c1C#N | inconclusive: 14.1 µM [activator, partial curve] |  |
| COc1ccc(C(=O)NC2CCCc3c2cnn3-c2ccc(C)c(C)c2)c(OC)c1OC (centres undefined) | inconclusive: 20 µM [activator, partial curve, poor fit] |  |
| COc1ccccc1CNC(=O)CCC1N=C2c3ccccc3N=C(SCc3ccc(Cl)cc3)N2C1=O (centres undefined) | inconclusive: 31.6 µM [activator, single point] |  |
| COc1ccc(Cn2c(NC(=O)c3ccccc3)nc(Cc3ccccc3)c2-c2ccccc2)cc1 | inconclusive: 25.1 µM [activator, partial curve, poor fit] |  |
| O=C1NC(Cc2ccccc2)c2nc3ccccc3c(=O)n2-c2cc3ccccc3cc21 (centres undefined) | inconclusive: 22.4 µM [activator, single point] |  |
| COc1ccccc1N1CCN(S(=O)(=O)c2cccc3nsnc23)CC1 |  | inconclusive: 58.3% [activator] |
| COC(=O)[C@@]1(Cc2ccc(F)cc2)[C@H]2c3cc(C(=O)N(C)C)n(Cc4ccc(S(C)(=O)=O)cc4)c3C[C@H]2CN1C(=O)c1ccccc1 | inconclusive: 14.1 µM [activator, partial curve, poor fit] |  |
| Cc1ccc(C)c(C(=O)O/N=C(\N)c2ccc(Br)cc2)c1 |  | inactive: 6.87% |
| Cc1ccc(N2CCN(S(=O)(=O)c3ccc(Cl)c4ccccc34)CC2)c(C)c1 |  | inactive: -11.6% |
| O=C(CN(CCc1ccccc1)S(=O)(=O)c1ccc(Cl)s1)N1CCOCC1 | inconclusive: 31.6 µM [activator, partial curve, poor fit] |  |
| CCN=C1Sc2nc3ccc(OCC)cc3cc2CN1CCOC |  | inconclusive: 60% [activator] |
| COc1ccc(N2CC(C(=O)Nc3nnc(SCCC4OCCO4)s3)CC2=O)cc1 (centres undefined) | inconclusive: 12.6 µM [activator, partial curve, poor fit] |  |
| NC(=O)c1nc(-c2ccc(F)c(F)c2)nc2c1[nH]c(=O)n2-c1cccc(Cl)c1 |  | inactive: -18.6% |
| N#CCC(=O)Nc1ccc(C(=O)Nc2ccc3c(c2)OCO3)cc1 | inconclusive: 39.8 µM [activator, partial curve, poor fit] |  |
| C=CCOC(=O)C1=C[C@@H](c2ccc(Br)cc2)C[C@@H](OCc2ccc(CO)cc2)O1 | inconclusive: 28.2 µM [activator, single point] |  |
| CN1CCC(OC(c2ccccc2)c2ccc(Cl)cc2)C1 (centres undefined) |  | inactive: 6.12% |
| Cc1ccc(C(=O)Nc2ccc3nc(SCC(=O)N4CCCc5ccccc54)sc3c2)cc1 | inconclusive: 17.8 µM [activator, partial curve] |  |

Reference: PubChem BioAssay AID1347120 (National Center for Advancing Translational Sciences (NCATS), 2019)
